Measured values as given in the supplement of paper PMC10126150.
Values marked as one replicate rest on one cluster of the flow cell; about a third of the high ones do not repeat.

system: ATP; assay: switch fluorescence ratio, 500 uM ATP over buffer (Cy3 cluster intensity, sum of 5 cycles each) (fold (ratio)); higher = stronger signal-on switching upon ATP binding; sequences stand for … in TCGTCGGCAGCGTCAGATGTGTATAAGAGACAGTTTTTTTTTTTTTTTTTTTTTTTTT…TC; details: aptamer strand: ATP DNA aptamer (quencher-CACCTGGGGGAGTATTGCGGAGGAAGG + anchor), 100 nM annealed; ATP concentration: 500 uM; one replicate
In short: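 Between each of five buffer/ATP cycles, the flow-cell was stripped with NaOH and re-annealed. Each cycle imaged Cy3-labelled switching-strand clusters, annealed to 100 nM quencher-labelled ATP aptamer on a modified Illumina MiSeq flow-cell, first in selection buffer and then after 15 min with 500 uM ATP at 22 °C. The fluorescence ratio is summed target-cycle over summed buffer-cycle Cy3 intensity per cluster, averaged per switch-domain sequence, with clusters outside 100-1000 RFU excluded.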
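Note: ATP exposure 15 min at 22 °C before imaging.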

Sequence | switch fluorescence ratio
TGAGATATTT | 1.01
TGAGATTCTC | 0.91
TGAGCAAAAT | 1.02
TGAGCATCAT | 0.969
TGAGCATGGA | 1.02
TGAGCCTGTT | 0.985
TGAGCTCGCG | 0.962
TGAGCTCTTC | 0.989
TGAGCTGATA | 1.01
TGAGCTGGTC | 0.992
TGAGCTGTAT | 1.02
TGAGCTTTCC | 1.13
TGAGGAGTCT | 1.05
TGAGGATGCA | 0.968
TGAGGATTAA | 0.952
TGAGGCCCGA | 1.06
TGAGGCCCGT | 0.956
TGAGGTAAGT | 1.01
TGAGGTACA | 1
TGAGGTGGCC | 1.02
TGAGTAGGCG | 1.09
TGAGTCAGAT | 0.958
TGAGTCATAT | 1.08
TGAGTCCGTG | 1.08
TGAGTCGAAA | 0.994
TGAGTCTTGA | 1.03

Sequence | switch fluorescence ratio
TGAGTCTTTA | 0.961
TGAGTGATAG | 1.09
TGAGTGCCAG | 1.01
TGATAACGCT | 1.08
TGATACTATG | 0.98
TGATAGACTC | 1.03
TGATAGTTTT | 1
TGATATAAAG | 0.999
TGATATACAT | 1.05
TGATATAGAC | 1.04
TGATATAGTT | 0.986
TGATATGACG | 0.982
TGATCACATG | 0.989
TGATCCGCGG | 2.11
TGATCGATTT | 0.98
TGATCGGAGT | 1
TGATCTAGGA | 1.06
TGATGACTCT | 1.01
TGATGAGAAA | 0.986
TGATGAGAAG | 1.04
TGATGAGGCG | 1.03
TGATGAGGT | 1.12
TGATGATGGC | 0.999
TGATGATTCG | 1.01
TGATGGTGAA | 0.992
TGATGTGTT | 1.03

Sequence | switch fluorescence ratio
TGATGTTGAT | 0.977
TGATTATCCA | 1.01
TGATTCAGCA | 1.02
TGATTGAGGT | 1.01
TGATTGGCTT | 0.976
TGATTGTTC | 0.997
TGATTTGCTG | 0.946
TGCAAAGGGA | 0.957
TGCAAATAAG | 1
TGCAAATTT | 0.982
TGCAACAACG | 1.01
TGCAACAGGG | 1.08
TGCAACATCG | 1.03
TGCAACCCGT | 1.13
TGCAAGATAG | 1.07
TGCAAGGATG | 0.962
TGCAATAGTC | 2.17
TGCACAAAGC | 1.01
TGCACAGGGA | 1.09
TGCACCAAAA | 0.99
TGCACCCCGC | 1.21
TGCACGAGTC | 1.03
TGCACGGCAA | 1.15
TGCACTACGC | 1.11
TGCAGAAAAC | 1.06
